# Reference: publication PMC4336329 (PLoS ONE, 2015)
# Hit rate of the full screen: of about 310,000 compounds, about 14,000 (4.5%) showed an effect of 50% or more. The effect is printed as a negative number. The list shows a part of the results.
# Biological target: human ether-à-go-go-related gene (hERG) potassium channel (human, UniProt Q12809)
# Test: primary screen, population patch clamp on CHO cells stably expressing hERG
# 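Note: peak tail current of the secondary pulse compared with the same well before compound.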
# Chain of human ether-à-go-go-related gene (hERG) potassium channel (Q12809 whole entry, looked up): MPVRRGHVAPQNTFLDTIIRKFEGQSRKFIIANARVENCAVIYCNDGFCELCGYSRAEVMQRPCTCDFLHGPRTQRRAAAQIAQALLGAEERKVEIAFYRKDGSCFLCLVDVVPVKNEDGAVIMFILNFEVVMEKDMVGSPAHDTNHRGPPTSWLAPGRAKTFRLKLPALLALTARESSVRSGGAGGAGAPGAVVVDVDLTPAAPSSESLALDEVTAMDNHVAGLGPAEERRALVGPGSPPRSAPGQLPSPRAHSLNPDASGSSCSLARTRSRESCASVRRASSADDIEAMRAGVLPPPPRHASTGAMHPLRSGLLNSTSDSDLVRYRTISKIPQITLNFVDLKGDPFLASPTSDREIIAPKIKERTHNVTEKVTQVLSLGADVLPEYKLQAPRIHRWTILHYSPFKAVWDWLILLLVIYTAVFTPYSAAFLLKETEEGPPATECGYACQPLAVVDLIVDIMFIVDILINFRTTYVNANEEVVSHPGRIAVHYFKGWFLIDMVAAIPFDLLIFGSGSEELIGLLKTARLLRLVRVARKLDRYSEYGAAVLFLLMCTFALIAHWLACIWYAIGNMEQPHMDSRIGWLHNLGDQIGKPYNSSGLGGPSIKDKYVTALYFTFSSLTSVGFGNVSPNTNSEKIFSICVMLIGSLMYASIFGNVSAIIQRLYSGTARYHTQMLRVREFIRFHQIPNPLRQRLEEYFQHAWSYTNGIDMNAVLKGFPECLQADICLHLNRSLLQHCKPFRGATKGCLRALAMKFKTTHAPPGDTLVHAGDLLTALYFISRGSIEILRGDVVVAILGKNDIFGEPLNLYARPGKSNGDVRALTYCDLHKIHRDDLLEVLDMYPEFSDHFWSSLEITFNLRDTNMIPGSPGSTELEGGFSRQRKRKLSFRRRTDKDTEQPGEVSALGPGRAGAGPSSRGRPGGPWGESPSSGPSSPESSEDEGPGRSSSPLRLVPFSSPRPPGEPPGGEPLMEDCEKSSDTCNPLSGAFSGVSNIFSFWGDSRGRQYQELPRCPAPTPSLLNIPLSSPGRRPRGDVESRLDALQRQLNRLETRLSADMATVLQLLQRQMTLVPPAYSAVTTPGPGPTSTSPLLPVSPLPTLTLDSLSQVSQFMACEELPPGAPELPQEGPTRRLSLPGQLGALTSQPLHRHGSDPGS
row,Compound,"hERG current change (%, negative = inhibition) at 10uM"
1,O=C(CSc1nnc2scc(-c3ccccc3)n12)Nc1nsc(-c2ccc(Cl)cc2)n1,-3.5%
2,CC(=O)Nc1ccc(NC(=O)c2cc(-c3ccccc3)nc3ccccc23)cc1,17.1%
3,CNc1nc(SCC(=O)Nc2ccccc2)nc(N2CCOCC2)n1,21.9%
4,COc1cc(NC(=O)c2ccc3snnc3c2)cc(OC)c1,13.5%
5,Cc1cc(=O)n(C)c(=O)n1CCCCOc1cccc([N+](=O)[O-])c1,-14.5%
6,CCCCCCCCCCCCN1[C@@H](CC(=O)OC)c2cc(C(F)(F)F)ccc2S1(=O)=O,-16.2%
7,CC(NCC(O)COCc1cccs1)C1CC2CCC1C2 (stereo not shown),-8.05%
8,O=C(CN1CCN(CC(=O)Nc2ccccc2Cl)CC1)NCC1(N2CCCCC2)CCCCC1,-39.7%
9,CCN=C1SC(CC(=O)Nc2ccccc2)C(=O)N1CC (stereo not shown),-19.8%
10,CN(CC(=O)N(CCO)Cc1ccccc1)S(=O)(=O)c1ccc2c(c1)c(=O)n(C)c(=O)n2C,-16.8%
11,COc1ccc(C(=O)NCC(=O)N/N=C(C)\C=C\c2ccccc2)cc1OC,-19.3%
12,O=C(O)c1ccc(Cn2ccc3ccccc32)o1,8.09%
13,COc1ccc(CN2CCNC(=O)C2CC(=O)NC2CCCC2)cc1OC (stereo not shown),6.22%
14,CC(Sc1ccccc1)C(=O)N1CCN(S(=O)(=O)c2cccc(Br)c2)CC1 (stereo not shown),-11.9%
15,CCc1ccc(OCC(=O)NCc2ccco2)c(Br)c1,-2.74%
16,CCOC(=O)CC(=O)CSC1=C(C#N)C(c2ccccc2OC)CC(=O)N1 (stereo not shown),-35.1%
17,Cc1ccc(CN(C(=O)c2cc3ccccc3oc2=O)C2CCS(=O)(=O)C2)cc1 (stereo not shown),-34%
18,Cc1cccc(N2CCN(C(=O)c3cc4cc(F)ccc4[nH]3)CC2)c1C,8.46%
19,Cc1ccc(-c2c(C(=O)N/N=C/c3ccsc3)nnn2-c2nonc2N)cc1,8.75%
20,O=C(c1cc(-c2ccccc2)nc2ccccc12)N1CCCc2ccccc21,0.0991%
21,Cc1cccc(C)c1OCC(=O)OC/C(O)=C(\C#N)c1nc2ccccc2[nH]1,12.6%
22,CCCc1cc(=O)n2[nH]c(NCc3c(F)cccc3Cl)nc2n1,15.4%

row,Compound,"hERG current change (%, negative = inhibition) at 10uM"
1,O=c1nc2n(c3ccc(Br)cc13)CCS2,-13.2%
2,Cc1cc(C(=O)COC(=O)c2n[nH]c(=O)c3ccccc23)c(C)n1C(C)C,-9.38%
3,CN(C)C(=O)c1ccc(N/C=C(\C=O)c2nc3ccccc3o2)cc1,-17.8%
4,COc1ccccc1NS(=O)(=O)c1cc(NC(=O)CNC(=O)c2ccc(C)s2)ccc1Cl,-6.01%
5,CCCCc1cc(=O)oc2c(C)c(OCC(=O)NCC3CCC(C(=O)O)CC3)ccc12 (stereo not shown),-1.74%
6,O=C(NCCc1cn2ccccc2n1)c1ccc(Br)o1,-28.9%
7,COc1cc(C)nc(Oc2ccc(=O)[nH]n2)n1,-9.95%
8,O=C(COC(=O)c1cccc(S(=O)(=O)NCc2ccccc2)c1)NCC1CCCO1 (stereo not shown),3.36%
9,CN(C)c1ccc(-n2cc3c(=O)n(C)c(=O)n(C)c3c2)cc1,-1.19%
10,O=C(O)COc1ccccc1C1C2C(=O)N(c3ccc(F)cc3)C(=O)C2ON1c1ccccc1 (stereo not shown),-5.93%
11,CN(C(=O)Cn1cc(C#N)c2ccccc21)c1ccccc1,-6.8%
12,Cc1cc(/C=N/n2c(COc3ccccc3)nc3ccccc3c2=O)c(O)c([N+](=O)[O-])c1,-14.6%
13,COC(=O)c1ccccc1NC(=O)CSc1nnc(C(CO)NC(=O)c2ccccc2Cl)n1C (stereo not shown),12.9%
14,COc1ccc2[nH]c3c(c2c1)CCN1C(=O)N([C@@H](C)C(=O)NCc2ccccc2)C(=O)[C@]31C,2.42%
15,CCn1c(O)c(C=NCCc2c[nH]c3ccccc23)c(=O)[nH]c1=O,21.6%
16,Cc1noc(/C=C/N(C)C)c1S(=O)(=O)N1CCCC(C(=O)NCc2ccc(Cl)cc2)C1 (stereo not shown),1.22%
17,CCCNC(=O)c1ccc2c(c1)nc(C)n2-c1cccc(C)c1,-34.8%
18,O=C1C2C3C=CC(C3)C2C(=O)N1c1ccc(-c2nc3ccccc3c(=O)o2)cc1 (stereo not shown),19.6%
19,c1ccc(CCNc2ncnc3c2cnn3-c2ccccc2)cc1,-40.5%
20,CCC(=O)N/C=C/n1cnc2cc(C(F)(F)F)ccc21,-15.1%
21,COc1cc(C(=O)N2CCN(CC(O)COc3ccccc3)CC2)cc(OC)c1OC (stereo not shown),4.32%
22,O=C(NNC(=S)NC1CCCCC1)c1cccc(S(=O)(=O)Nc2ccccc2Cl)c1,13.1%

row,Compound,"hERG current change (%, negative = inhibition) at 10uM"
1,COC(=O)c1cc(-c2ccc(S(=O)(=O)N3CCCC(C)C3)cc2)c(C(F)(F)F)s1 (stereo not shown),-7.11%
2,Cc1cc(Br)ccc1OCc1nc(-c2cccnc2)no1,14.4%
3,Cc1nc(N2CCOCC2)[nH]c(=O)c1C,24.3%
4,O=C(COC(=O)c1ccc(Br)o1)NCCc1ccccc1,4.67%
5,CSc1ccc(CN(C)CC(=O)NC(=O)NCCC2=CCCCC2)cc1,-10%
6,O=C(CCC(=O)OCC(=O)c1ccc([N+](=O)[O-])cc1)NC1CCCCC1,-0.724%
7,COc1ccc(C(C(N)=O)c2ncc(C(F)(F)F)cc2Cl)cc1 (stereo not shown),4.78%
8,O=C(OCC(=O)N1CCN(c2cccc(Cl)c2)CC1)c1ccco1,-12%
9,COc1cc(/C=C/C(=O)N(C)CC(=O)Nc2ccccc2Br)cc2c1OCCO2,0.127%
10,CCN(CC)C(=O)c1ccc2nc(-c3ccccc3)c(-c3ccccc3)nc2c1,-2.32%
11,Cc1cc(SCC(=O)N/N=C/c2ccc(O)cc2O)nc2ccccc12,9.64%
12,O=C(NNC1CC(=O)N(c2ccccc2)C1=O)c1ccco1 (stereo not shown),15.1%
13,Cc1ccc(S(=O)(=O)N=C2SCCCS2)cc1,4.41%
14,O=C1/C(=C/c2ccccc2)SC(=S)N1CCCC(=O)N1CCCCC1CCO (stereo not shown),-1.99%
15,CCOP(=O)(OCC)C(Nc1ccc([N+](=O)[O-])cc1)c1ccc(Cl)cc1 (stereo not shown),-76%
16,O=C(COc1ccc2ccc(=O)oc2c1)N1CCN(c2ccc(F)cc2)CC1,-31%
17,COc1cc2nc(N(CCN(C)C)C(=O)c3ccc4ccccc4c3)sc2cc1OC.Cl,-40.8%
18,O=C(c1cc(-c2cccc(Cl)c2)on1)N1CCc2ccccc2C1,24.2%
19,CC1CCc2c(sc(NC(=O)/C=C/c3cccs3)c2C(=O)O)C1 (stereo not shown),34.3%
20,Cc1ccc(C)c(NC(=S)N(Cc2cccc(Br)c2)CC2CCC(C(=O)O)CC2)c1 (stereo not shown),2.11%
21,COc1cc(/C=C/C(=O)OCC(=O)N2c3ccccc3CC2C)cc(OC)c1OC (stereo not shown),-19.4%
22,CCN(CCO)Cc1csc2cccc(Br)c12.Cl,-24.6%

row,Compound,"hERG current change (%, negative = inhibition) at 10uM"
1,CC(C)Nc1ccc(C(CC(N)=O)NC(=O)Cc2cccc3ccccc23)cc1[N+](=O)[O-] (stereo not shown),-2.02%
2,O=C(CCCCCn1c(=S)[nH]c2ccc(N3CCOCC3)cc2c1=O)NCc1ccccc1,12%
3,CCC(C(=O)OCC(=O)Nc1cccc(C(C)=O)c1)c1ccccc1 (stereo not shown),2.95%
4,Cc1cc(Br)cc2c(C(=O)Nc3c(C)n(C)n(-c4ccccc4)c3=O)cc(-c3cccs3)nc12,12.1%
5,O=[N+]([O-])c1ccc(O)c(-c2nn[nH]n2)c1,1.52%
6,COc1cccc(-c2ccc3c(N)c(C(=O)NC4CC4)sc3n2)c1,12.8%
7,COc1cc(/C=C/C(=O)O)ccc1OCc1cnc(Cl)s1,5.88%
8,O=C(NC1CCCCCC1)C(=S)N1CCCC1,0.128%
9,O=C(Nc1ccc(S(=O)(=O)Nc2ncccn2)cc1)c1ccc(S(=O)(=O)N2CCCC2)cc1,15.5%
10,Cc1c(N=Cc2cc3c(cc2[N+](=O)[O-])OCO3)cccc1[N+](=O)[O-],6.14%
11,O=c1c2c([nH]c3ccc(Br)cc13)CCCC2,3.36%
12,CC1(C)C(C(=O)NCc2ccco2)C1(C)C,3.59%
13,C[C@@H]1C[C@H]2[C@@H]3C[C@H](F)C4=CC(=O)C(Cl)=C[C@]4(C)[C@@]3(F)[C@@H](O)C[C@]2(C)[C@@]1(O)C(=O)CO,-5.56%
14,CC(=O)Nc1ccc(-c2nn[nH]n2)cc1,4.51%
15,CC(C)(C)C(=O)Nc1nnc(SCC(=O)Nc2ccc3c(c2)OCO3)s1,14.9%
16,CCOCCCNc1ccc(N2C(=O)C3CCCCC3C2=O)cc1[N+](=O)[O-] (stereo not shown),-2.09%
17,O=S(=O)(Cc1ccccc1)NCC1CCCN(Cc2ccc(F)c(F)c2)C1 (stereo not shown),-44.2%
18,O=S(=O)(Nc1ccc(Cl)cn1)c1ccc(F)cc1,-22.5%
19,O=C(COC(=O)c1cc([N+](=O)[O-])ccc1NCCO)Nc1ccc2c(c1)OCO2,5.75%
